As a reminder, the % Inhibition is the drop in the measured response relative to a control, in per cent.

Experimental findings from ChEMBL document CHEMBL4888484, “Replenishing the malaria drug discovery pipeline: Screening and hit evaluation of the MMV Hit Generation Library 1 (HGL1) against asexual blood stage Plasmodium falciparum ,using a nano luciferase reporter read-out” (2022) are described below.

The structures appear in SMILES notation. The campaign covered roughly 150,000 compounds. About 540 (0.36%) showed an effect of 50% or more. The list shows a part of the results.

The assay concerns Plasmodium falciparum. Description: Primary screen in NF54 nanoGlo assay, in single point, at 2uM, 72h; a lower Z score goes with more inhibition. The assay is classed as functional, Erythrocyte. The settings on record: timepoint 72 hour.
In the case of `CCN1C[C@H](CN(C)C(=O)c2occc2C)Oc2ccccc21`, the “% Inhibition” value is listed as 5% and the Z score is -0.67.
In the same order, the values of `Cc1cc(-c2cc(C(=O)N[C@@H]3CCCC[C@H]3O)c3c(C)noc3n2)c(C)o1` are -7% and 0.94.
Regarding `Nc1nc2[nH]c3c(c(=O)n2n1)CCCC3`, the “% Inhibition” value is given as 5% and the Z score is -0.55.
In the same order, the values of `CCOC(=O)c1cn(CC2CCCCC2)c2nc(C)ccc2c1=O` are 23% and -2.66.
In the same order, the values of `CCOC(=O)c1cn(CCNC(=O)c2cc(Cl)cn2C)cn1` are 33% and -3.71.
Take `CN1CCCN(C(=O)Cc2csc(-c3ccccc3)n2)c2nc3ccccc3nc21`: the “% Inhibition” value is given as 4% and the Z score was -0.59.
As for `Cc1nc2ccccc2n1CCNCc1cccc2ccccc12`, the “% Inhibition” value is reported as -12% and the Z score was 1.
For `CCn1cc(OCCOc2cccc(OC)c2)cn1`, the “% Inhibition” value is -13% and the Z score worked out at 2.31.
In the case of `C[C@@H]1[C@H](N(C)CCO)CCN1Cc1cnc(C(C)(C)C)nc1`, the “% Inhibition” value was -3% and the Z score is listed as 0.37.
In the same order, the values of `Cc1noc2ncc(C(=O)N3CCC[C@H](S(N)(=O)=O)C3)cc12` are 31% and -3.48.
In the same order, the values of `CC(C)Cc1ncc(CN2CC(O)(c3ccccc3)C2)s1` are -1% and 0.18.
In the same order, the values of `COc1ccc2c(c1)CCc1c(C(=O)Nc3ccc(C)cc3)n[nH]c1-2` are -4% and 0.59.
As to `C[C@H]1CCCCN1c1ccnc(C2CC2)n1`, the “% Inhibition” value was -15% and the Z score is listed as 1.88.
In the same order, the values of `O=C(c1ccc(F)cc1F)N1CC[C@H]2CN(Cc3ccccc3)C[C@@]2(CO)C1` are -11% and 1.77.
In the same order, the values of `Cc1cc(S(=O)(=O)NC2CCN(C)CC2)ccc1N1CCCC1=O` are -7% and 1.2.
As to `CCCN1CCN(C(=O)c2cc(NC(=O)C3CCC3)cc3nc(C)ccc23)CC1`, the “% Inhibition” value is on record as -14% and the Z score worked out at 1.98.
In the same order, the values of `COCCn1ccc2c(OCC(=O)N3Cc4cc(OC)c(OC)cc4C[C@H]3C(N)=O)cccc21` are 0% and -0.03.
`CC(=O)Nc1nnc(CCS(=O)(=O)c2ccccc2)o1`: the “% Inhibition” value was -7% and the Z score was 1.32.
For the molecule `CN(Cc1cc(-c2cccs2)n[nH]1)Cc1cc(CN2CCCC2)cs1`, the “% Inhibition” value was -5% and the Z score was 0.6.
On to `O=C(c1cccnc1)N1C[C@@H]2OCC(=O)N(Cc3ccccn3)[C@@H]2C1`, for which the “% Inhibition” value worked out at 11% and the Z score is -1.23.
In the same order, the values of `CN(C)c1ccc(NC(=O)C2CCC2)cc1CN(CC1CC1)C(=O)C(C)(C)C` are -2% and 0.25.
Consider `O=C(CN1CCN(CC(F)(F)F)c2ccccc21)Nc1ccccc1C(F)(F)F`, for which the “% Inhibition” value is recorded as -4% and the Z score amounted to 0.52.
Take `Cc1ccc(NC(=O)N2CC(n3nccn3)C2)cc1C`: the “% Inhibition” value amounted to 5% and the Z score is -0.56.
In the case of `C1CC[C@@H](c2nc(CCOCC3CCOCC3)no2)NC1`, the “% Inhibition” value was -1% and the Z score is 0.17.
In the same order, the values of `O=C(NCCc1ccccc1)c1cccc(Nc2c(-c3ccc(Cl)cc3)nc3cnccn23)c1` are 8% and -1.54.
In the same order, the values of `Cc1nc(-c2ccc3c(c2)CCN3C(=O)C2CCN(C(=O)c3ccc(F)cc3F)CC2)cs1` are -6% and 0.94.
In the same order, the values of `COC1CCN(C[C@H]2CCCCCN2C(=O)Nc2cccc(C)c2)CC1` are -6% and 0.92.
For `O=C1C[C@@H](C(=O)Nc2ccncc2)Oc2ccc(F)cc21`, the “% Inhibition” value came to 31% and the Z score is -3.46.
In the same order, the values of `Cc1noc(C)c1S(=O)(=O)NCc1cn(-c2cccnc2)nn1` are 0% and 0.
In the same order, the values of `Nc1ncc(Cl)cc1S(=O)(=O)N1CCCNCC1` are -9% and 1.71.
For `CC1CN(c2nc(-c3ccccc3)nnc2-c2ccccc2)CC(C)O1` (centres undefined), the “% Inhibition” value stood at 32% and the Z score is -0.87.
With `N#CCN(C(=O)c1cnn(Cc2ccccc2)c1)C1CCCC1`, the “% Inhibition” value is reported as -14% and the Z score stood at 1.27.
Regarding `CCc1ccc(-c2c(-c3ccccc3)ncn2Cc2nnc3n2CCC3)nc1`, the “% Inhibition” value was 17% and the Z score is reported as -2.15.
In the same order, the values of `Cc1cc([C@@H](C)C(=O)N2CCN(CC(C)(C)O)CC2)c(C)o1` are -3% and 0.29.
In the same order, the values of `O=C(Nc1ccc(F)cc1NC(=O)c1cc2c(s1)CCC2)c1ccccn1` are -5% and 0.6.
In the same order, the values of `COc1ccc(Cl)cc1NC(=O)Cn1cc2c(n1)CCCCC2` are -8% and 1.46.
On to `CCOc1ccc(CNC(=O)C2CCN(c3nccc4c(C)nn(CC)c34)CC2)cc1OCC`, for which the “% Inhibition” value stood at 7% and the Z score is listed as -1.22.
Consider `COC(=O)C1CCN(Cc2ccc3c(c2)CN(C(=O)c2ccc(CC(C)C)cc2)CCO3)CC1`, for which the “% Inhibition” value is 2% and the Z score is -0.47.
On to `C[C@@H](c1ccc(Cl)cc1Cl)N(C)C(=O)CC1CCOCC1`, for which the “% Inhibition” value is -7% and the Z score came to 1.05.
With `O=C(CCC1CCCOC1)NC(c1ccc(F)cc1)c1ccccn1` (centres undefined), the “% Inhibition” value is listed as -13% and the Z score is reported as 1.99.
In the case of `CC(C)(C(=O)Nc1cc(C2CCCC2)[nH]n1)N1CCOCC1`, the “% Inhibition” value is reported as -1% and the Z score is on record as 0.14.
In the same order, the values of `COc1ccc(CS(=O)(=O)Cc2nc(C)cs2)cc1Cl` are -6% and 0.55.
